From article PMC12820563, “FoxP3 forms a head-to-head dimer in vivo and stabilizes its multimerization on adjacent microsatellites”
Some of the results follow.

biological target: T1, MBP-FoxP1dN (Mus musculus, UniProt P58462 326-579); test: PD-seq (MBP pull-down with sequencing); 20 mM Tris-HCl pH 7.5, 100 mM NaCl, 1.5 mM MgCl2, 0.4 uM protein, 0.1 uM dsDNA library, 30 min, room temperature, amylose pull-down; high values mean tight binding; conditions: protein: recombinant; tags: His6-MBP; chain copies: 2; dsDNA, one strand shown
T1 sequence: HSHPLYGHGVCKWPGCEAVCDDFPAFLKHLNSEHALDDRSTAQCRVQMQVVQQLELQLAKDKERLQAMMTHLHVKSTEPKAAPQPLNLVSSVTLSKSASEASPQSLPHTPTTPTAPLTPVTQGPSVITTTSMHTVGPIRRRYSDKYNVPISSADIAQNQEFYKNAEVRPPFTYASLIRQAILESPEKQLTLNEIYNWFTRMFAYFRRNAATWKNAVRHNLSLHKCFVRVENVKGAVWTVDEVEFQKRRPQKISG
Outline: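 Binding is given as reads-per-million enrichment, pull-down over input, with replicates pooled. The bait was an N-terminus-lacking mouse FoxP3 or FoxP1 fragment with a His6-MBP tag, expressed in E. coli and used at 0.4 µM with 0.1 µM Klenow-filled degenerate double-stranded DNA library for 30 min at room temperature in Tris pH 7.5 buffer with NaCl and MgCl2. Amylose resin pull-down with three washes was followed by proteinase K release, PCR barcoding and Illumina sequencing.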

Question: “GATGATTGTTCTCCCAGCTGATGAATTATTTAAGTCGAGTAAACAAATTTTCCTAATCTTTCTGTTCAAGCGCCATCTAC” was tested. Which binding signal did it give?
Answer: 1.06 RPM ratio (pull-down/input)

Question: Which binding signal does the source give for “GATGATTGTTCTCCCAGCTGATGAATTACGCGCGTCGAGTAAACAAATTTTCCTAATCTTTCTGTTCAAGCGCCATCTAC” here?
Answer: 1.09 RPM ratio (pull-down/input)

Question: For “GATGATTGTTCTCCCAGCTGATGAATTCCTATACTCGAGTAAACAAATTTTCCTAATCTTTCTGTTCAAGCGCCATCTAC”, which binding signal is on record?
Answer: 0.861 RPM ratio (pull-down/input)

Question: “GATGATTGTTCTCCCAGCTGATGAATTCGAGGTTTCGAGTAAACAAATTTTCCTAATCTTTCTGTTCAAGCGCCATCTAC” was tested. Which binding signal did it give?
Answer: 0.88 RPM ratio (pull-down/input)

Question: How did the binding signal turn out when “GATGATTGTTCTCCCAGCTGATGAATTGGTCTTGTCGAGTAAACAAATTTTCCTAATCTTTCTGTTCAAGCGCCATCTAC” was run?
Answer: 0.936 RPM ratio (pull-down/input)

Question: How did the binding signal turn out when “GATGATTGTTCTCCCAGCTGATGAATTGGAAGGCTCGAGTAAACAAATTTTCCTAATCTTTCTGTTCAAGCGCCATCTAC” was run?
Answer: 0.76 RPM ratio (pull-down/input)

Question: How did the binding signal turn out when “GATGATTGTTCTCCCAGCTGATGAATTGGGATTCTCGAGTAAACAAATTTTCCTAATCTTTCTGTTCAAGCGCCATCTAC” was run?
Answer: 0.836 RPM ratio (pull-down/input)

Question: For “GATGATTGTTCTCCCAGCTGATGAATTTTGGAGATCGAGTAAACAAATTTTCCTAATCTTTCTGTTCAAGCGCCATCTAC”, which binding signal is on record?
Answer: 0.822 RPM ratio (pull-down/input)

Question: For “GATGATTGTTCTCCCAGCTGATGAATTAGCGTGCTCGAGTAAACAAATTTTCCTAATCTTTCTGTTCAAGCGCCATCTAC”, which binding signal is on record?
Answer: 0.924 RPM ratio (pull-down/input)

Question: With “GATGATTGTTCTCCCAGCTGATGAATTACCTACTTCGAGTAAACAAATTTTCCTAATCTTTCTGTTCAAGCGCCATCTAC” as the sequence, how does the binding signal read?
Answer: 1.03 RPM ratio (pull-down/input)

Question: Which binding signal does the source give for “GATGATTGTTCTCCCAGCTGATGAATTGTGCTCATCGAGTAAACAAATTTTCCTAATCTTTCTGTTCAAGCGCCATCTAC” here?
Answer: 1.12 RPM ratio (pull-down/input)

Question: How did the binding signal turn out when “GATGATTGTTCTCCCAGCTGATGAATTGACGTTATCGAGTAAACAAATTTTCCTAATCTTTCTGTTCAAGCGCCATCTAC” was run?
Answer: 1.24 RPM ratio (pull-down/input)

Question: Which binding signal does the source give for “GATGATTGTTCTCCCAGCTGATGAATTGTCAGGCTCGAGTAAACAAATTTTCCTAATCTTTCTGTTCAAGCGCCATCTAC” here?
Answer: 0.839 RPM ratio (pull-down/input)

Question: “GATGATTGTTCTCCCAGCTGATGAATTACTATAATCGAGTAAACAAATTTTCCTAATCTTTCTGTTCAAGCGCCATCTAC” was tested. Which binding signal did it give?
Answer: 1.27 RPM ratio (pull-down/input)

Question: With “GATGATTGTTCTCCCAGCTGATGAATTTGTCTCTTCGAGTAAACAAATTTTCCTAATCTTTCTGTTCAAGCGCCATCTAC” as the sequence, how does the binding signal read?
Answer: 1.06 RPM ratio (pull-down/input)

Question: “GATGATTGTTCTCCCAGCTGATGAATTGCGTTACTCGAGTAAACAAATTTTCCTAATCTTTCTGTTCAAGCGCCATCTAC” was tested. Which binding signal did it give?
Answer: 1.17 RPM ratio (pull-down/input)

Question: How did the binding signal turn out when “GATGATTGTTCTCCCAGCTGATGAATTTCCGCCATCGAGTAAACAAATTTTCCTAATCTTTCTGTTCAAGCGCCATCTAC” was run?
Answer: 0.867 RPM ratio (pull-down/input)

Question: For “GATGATTGTTCTCCCAGCTGATGAATTTGCGTTATCGAGTAAACAAATTTTCCTAATCTTTCTGTTCAAGCGCCATCTAC”, which binding signal is on record?
Answer: 1.3 RPM ratio (pull-down/input)

Question: For “GATGATTGTTCTCCCAGCTGATGAATTAGCCGCTTCGAGTAAACAAATTTTCCTAATCTTTCTGTTCAAGCGCCATCTAC”, which binding signal is on record?
Answer: 0.848 RPM ratio (pull-down/input)

Question: “GATGATTGTTCTCCCAGCTGATGAATTTGTTGAATCGAGTAAACAAATTTTCCTAATCTTTCTGTTCAAGCGCCATCTAC” was tested. Which binding signal did it give?
Answer: 1.23 RPM ratio (pull-down/input)

Question: With “GATGATTGTTCTCCCAGCTGATGAATTGTTGTATTCGAGTAAACAAATTTTCCTAATCTTTCTGTTCAAGCGCCATCTAC” as the sequence, how does the binding signal read?
Answer: 2.21 RPM ratio (pull-down/input)

Question: “GATGATTGTTCTCCCAGCTGATGAATTGGGGTAGTCGAGTAAACAAATTTTCCTAATCTTTCTGTTCAAGCGCCATCTAC” was tested. Which binding signal did it give?
Answer: 0.905 RPM ratio (pull-down/input)

Question: For “GATGATTGTTCTCCCAGCTGATGAATTACTGTTGTCGAGTAAACAAATTTTCCTAATCTTTCTGTTCAAGCGCCATCTAC”, which binding signal is on record?
Answer: 2.55 RPM ratio (pull-down/input)

Question: Which binding signal does the source give for “GATGATTGTTCTCCCAGCTGATGAATTCATTATCTCGAGTAAACAAATTTTCCTAATCTTTCTGTTCAAGCGCCATCTAC” here?
Answer: 0.894 RPM ratio (pull-down/input)

Question: With “GATGATTGTTCTCCCAGCTGATGAATTCAGGGTGTCGAGTAAACAAATTTTCCTAATCTTTCTGTTCAAGCGCCATCTAC” as the sequence, how does the binding signal read?
Answer: 0.842 RPM ratio (pull-down/input)

Question: Which binding signal does the source give for “GATGATTGTTCTCCCAGCTGATGAATTAATAAAATCGAGTAAACAAATTTTCCTAATCTTTCTGTTCAAGCGCCATCTAC” here?
Answer: 1.16 RPM ratio (pull-down/input)

Question: How did the binding signal turn out when “GATGATTGTTCTCCCAGCTGATGAATTGCTGTGCTCGAGTAAACAAATTTTCCTAATCTTTCTGTTCAAGCGCCATCTAC” was run?
Answer: 1.06 RPM ratio (pull-down/input)

Question: “GATGATTGTTCTCCCAGCTGATGAATTACCTCAGTCGAGTAAACAAATTTTCCTAATCTTTCTGTTCAAGCGCCATCTAC” was tested. Which binding signal did it give?
Answer: 0.988 RPM ratio (pull-down/input)

Question: “GATGATTGTTCTCCCAGCTGATGAATTGTGCGCCTCGAGTAAACAAATTTTCCTAATCTTTCTGTTCAAGCGCCATCTAC” was tested. Which binding signal did it give?
Answer: 1.01 RPM ratio (pull-down/input)

Question: Which binding signal does the source give for “GATGATTGTTCTCCCAGCTGATGAATTGTCAAGGTCGAGTAAACAAATTTTCCTAATCTTTCTGTTCAAGCGCCATCTAC” here?
Answer: 0.882 RPM ratio (pull-down/input)

Question: “GATGATTGTTCTCCCAGCTGATGAATTCTCCGTGTCGAGTAAACAAATTTTCCTAATCTTTCTGTTCAAGCGCCATCTAC” was tested. Which binding signal did it give?
Answer: 0.822 RPM ratio (pull-down/input)

Question: For “GATGATTGTTCTCCCAGCTGATGAATTAAGTGCATCGAGTAAACAAATTTTCCTAATCTTTCTGTTCAAGCGCCATCTAC”, which binding signal is on record?
Answer: 1.43 RPM ratio (pull-down/input)

Question: Which binding signal does the source give for “GATGATTGTTCTCCCAGCTGATGAATTAAGCTCTTCGAGTAAACAAATTTTCCTAATCTTTCTGTTCAAGCGCCATCTAC” here?
Answer: 0.86 RPM ratio (pull-down/input)

Question: With “GATGATTGTTCTCCCAGCTGATGAATTTTATTCTTCGAGTAAACAAATTTTCCTAATCTTTCTGTTCAAGCGCCATCTAC” as the sequence, how does the binding signal read?
Answer: 0.886 RPM ratio (pull-down/input)

Question: For “GATGATTGTTCTCCCAGCTGATGAATTGTATTCATCGAGTAAACAAATTTTCCTAATCTTTCTGTTCAAGCGCCATCTAC”, which binding signal is on record?
Answer: 1.42 RPM ratio (pull-down/input)

Question: With “GATGATTGTTCTCCCAGCTGATGAATTTGGGCTTTCGAGTAAACAAATTTTCCTAATCTTTCTGTTCAAGCGCCATCTAC” as the sequence, how does the binding signal read?
Answer: 0.904 RPM ratio (pull-down/input)

Question: Which binding signal does the source give for “GATGATTGTTCTCCCAGCTGATGAATTCGACATTTCGAGTAAACAAATTTTCCTAATCTTTCTGTTCAAGCGCCATCTAC” here?
Answer: 0.853 RPM ratio (pull-down/input)

Question: With “GATGATTGTTCTCCCAGCTGATGAATTGAACCTGTCGAGTAAACAAATTTTCCTAATCTTTCTGTTCAAGCGCCATCTAC” as the sequence, how does the binding signal read?
Answer: 0.817 RPM ratio (pull-down/input)

Question: With “GATGATTGTTCTCCCAGCTGATGAATTAGAAGTGTCGAGTAAACAAATTTTCCTAATCTTTCTGTTCAAGCGCCATCTAC” as the sequence, how does the binding signal read?
Answer: 0.888 RPM ratio (pull-down/input)

Question: For “GATGATTGTTCTCCCAGCTGATGAATTATGAGCGTCGAGTAAACAAATTTTCCTAATCTTTCTGTTCAAGCGCCATCTAC”, which binding signal is on record?
Answer: 1.03 RPM ratio (pull-down/input)
